# From the supplement of paper PMC8728848
# The other results are listed elsewhere or left out.
# B1: Di AAL2 (Agrocybe aegerita) (protein)
# chain: MTSNVITQDLPIPVASRGFADIVGFGLDGVVIGRNAVNLQPFLAVKNFAQNAGGWLTTKHVRLIADTTGTGKGDIVGFGNAGVYVSVNNGKNTFADPPKMVIANFGYDAGGWRVEKHLRYLADIRKIGRADIIGFGEKGVLVSRNNGGLNFGPATLVLKDFGYDAGGWRLDRHLRFLADVTGNGHLDIVGFGDKHVFISRNNGDGTFAPAKSVIDNFCIDAGGWKIGDHPRFVADLTGDGTADIIGCGKAGCWVALNNGGGVFGQVKLVINDFGTDKGWQAAKHPRFIADLTGNGRGDVVGFGNAGVYVALNNGDGTFQSAKLVLKDFGVQQGWTVSKHRRFVVDLTGDGCADIIGFGEKETLVSYNDGKGNFGPVKALTNDFSFSGGKWAPETTVCWMANLDSSRHPAPAPMTSNVITQDLPIPVASRGFADIVGFGLDGVVIGRNAVNLQPFLAVKNFAQNAGGWLTTKHVRLIADTTGTGKGDIVGFGNAGVYVSVNNGKNTFADPPKMVIANFGYDAGGWRVEKHLRYLADIRKIGRADIIGFGEKGVLVSRNNGGLNFGPATLVLKDFGYDAGGWRLDRHLRFLADVTGNGHLDIVGFGDKHVFISRNNGDGTFAPAKSVIDNFCIDAGGWKIGDHPRFVADLTGDGTADIIGCGKAGCWVALNNGGGVFGQVKLVINDFGTDKGWQAAKHPRFIADLTGNGRGDVVGFGNAGVYVALNNGDGTFQSAKLVLKDFGVQQGWTVSKHRRFVVDLTGDGCADIIGFGEKETLVSYNDGKGNFGPVKALTNDFSFSGGKWAPETTVCWMANLDSSRH
# How the values were obtained:
# Assay in all cases: glycan array binding signal (z-score within array); higher = stronger binding
# Conditions in all cases: glycan notation: IUPAC condensed, linker removed
# [1] = target: Fuc(a1-2)Gal(b1-4)GlcNAc(b1-3)Gal(b1-4)GlcNAc(b1-2)Man(a1-3)[Fuc(a1-2)Gal(b1-4)GlcNAc(b1-3)Gal(b1-4)GlcNAc(b1-2)Man(a1-6)]Man(b1-4)GlcNAc(b1-4)GlcNAc
# Outline: (§1)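 Arrays were curated from the Consortium for Functional Glycomics database, 3228 in total, and kept only where the protein sequence was available. Binding is expressed as a within-array Z-score. This score was averaged across arrays of the same protein sequence at different concentrations or buffers and across linkers, and negative values can be read as non-binding.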
# [2] = target: Fuc(a1-2)Gal(b1-4)GlcNAc(b1-3)Gal(b1-4)GlcNAc(b1-3)Gal(b1-4)GlcNAc
# Outline: as §1
# [3] = target: Fuc(a1-2)Gal(b1-4)GlcNAc(b1-3)GalNAc
# Outline: as §1
# [4] = target: Fuc(a1-2)Gal(b1-4)GlcNAc(b1-3)[Fuc(a1-2)Gal(b1-4)GlcNAc(b1-6)]GalNAc
# Outline: as §1
# [5] = target: Fuc(a1-2)Gal(b1-4)GlcNAc(b1-3)[Fuc(a1-3)[Gal(b1-4)]GlcNAc(b1-6)]Gal(b1-4)Glc
# Outline: as §1
# [6] = target: Fuc(a1-2)Gal(b1-4)GlcNAc(b1-6)GalNAc
# Outline: as §1
# [7] = target: Fuc(a1-2)Gal(b1-4)GlcNAc6S
# Outline: as §1
# [8] = target: Fuc(a1-2)Gal(b1-4)[Fuc(a1-3)]GlcNAc
# Outline: as §1
# [9] = target: Fuc(a1-2)Gal(b1-4)[Fuc(a1-3)]GlcNAc(b1-2)Man(a1-3)[Fuc(a1-2)Gal(b1-4)[Fuc(a1-3)]GlcNAc(b1-2)Man(a1-6)]Man(b1-4)GlcNAc(b1-4)[Fuc(a1-6)]GlcNAc
# Outline: as §1
# [10] = target: Fuc(a1-2)Gal(b1-4)[Fuc(a1-3)]GlcNAc(b1-2)[Fuc(a1-2)Gal(b1-4)[Fuc(a1-3)]GlcNAc(b1-4)]Man(a1-3)[Fuc(a1-2)Gal(b1-4)[Fuc(a1-3)]GlcNAc(b1-2)Man(a1-6)]Man(b1-4)GlcNAc(b1-4)GlcNAc
# Outline: as §1
# [11] = target: Fuc(a1-2)Gal(b1-4)[Fuc(a1-3)]GlcNAc(b1-3)Gal(b1-4)[Fuc(a1-3)]GlcNAc
# Outline: as §1
# [12] = target: Fuc(a1-2)Gal(b1-4)[Fuc(a1-3)]GlcNAc(b1-3)Gal(b1-4)[Fuc(a1-3)]GlcNAc(b1-3)Gal(b1-4)[Fuc(a1-3)]GlcNAc
# Outline: as §1
# [13] = target: Fuc(a1-2)Gal(b1-4)[Fuc(a1-3)]GlcNAc(b1-3)GalNAc
# Outline: as §1
# [14] = target: Fuc(a1-2)Gal(b1-4)[Fuc(a1-3)]GlcNAc(b1-3)[Neu5Ac(a2-6)Gal(b1-4)GlcNAc(b1-6)]Gal(b1-4)Glc
# Outline: as §1
# [15] = target: Fuc(a1-2)Gal3S(b1-4)GlcNAc
# Outline: as §1
# [16] = target: Fuc(a1-2)Gal6S(b1-3)GlcNAc
# Outline: as §1
# [17] = target: Fuc(a1-2)Gal6S(b1-3)GlcNAc6S
# Outline: as §1
# [18] = target: Fuc(a1-2)Gal6S(b1-4)Glc
# Outline: as §1
# [19] = target: Fuc(a1-2)Gal6S(b1-4)Glc6S
# Outline: as §1
# [20] = target: Fuc(a1-2)[Gal(a1-3)]Gal
# Outline: as §1
# [21] = target: Fuc(a1-2)[Gal(a1-3)]Gal(b1-3)GalNAc
# Outline: as §1
# [22] = target: Fuc(a1-2)[Gal(a1-3)]Gal(b1-3)GalNAc(b1-3)Gal(a1-4)Gal(b1-4)Glc
# Outline: as §1
# [23] = target: Fuc(a1-2)[Gal(a1-3)]Gal(b1-3)GlcNAc
# Outline: as §1
# [24] = target: Fuc(a1-2)[Gal(a1-3)]Gal(b1-3)GlcNAc(b1-2)Man(a1-3)[Fuc(a1-2)[Gal(a1-3)]Gal(b1-3)GlcNAc(b1-2)Man(a1-6)]Man(b1-4)GlcNAc(b1-4)GlcNAc
# Outline: as §1
# [25] = target: Fuc(a1-2)[Gal(a1-3)]Gal(b1-3)GlcNAc(b1-2)Man(a1-3)[Fuc(a1-2)[Gal(a1-3)]Gal(b1-3)GlcNAc(b1-2)Man(a1-6)]Man(b1-4)GlcNAc(b1-4)[Fuc(a1-6)]GlcNAc
# Outline: as §1
# [26] = target: Fuc(a1-2)[Gal(a1-3)]Gal(b1-3)GlcNAc(b1-3)GalNAc
# Outline: as §1
# [27] = target: Fuc(a1-2)[Gal(a1-3)]Gal(b1-3)GlcNAc(b1-6)GalNAc
# Outline: as §1
# [28] = target: Fuc(a1-2)[Gal(a1-3)]Gal(b1-4)Glc
# Outline: as §1
# [29] = target: Fuc(a1-2)[Gal(a1-3)]Gal(b1-4)GlcNAc
# Outline: as §1
# [30] = target: Fuc(a1-2)[Gal(a1-3)]Gal(b1-4)GlcNAc(b1-2)Man
# Outline: as §1
binder,measurement,setting,value
B1,glycan array binding signal (z-score),[1],-0.185
same,glycan array binding signal (z-score),[2],-0.328
same,glycan array binding signal (z-score),[3],-0.309
same,glycan array binding signal (z-score),[4],-0.287
same,glycan array binding signal (z-score),[5],-0.288
same,glycan array binding signal (z-score),[6],-0.319
same,glycan array binding signal (z-score),[7],-0.341
same,glycan array binding signal (z-score),[8],-0.337
same,glycan array binding signal (z-score),[9],-0.294
same,glycan array binding signal (z-score),[10],-0.32
same,glycan array binding signal (z-score),[11],-0.337
same,glycan array binding signal (z-score),[12],-0.338
same,glycan array binding signal (z-score),[13],-0.323
same,glycan array binding signal (z-score),[14],-0.315
same,glycan array binding signal (z-score),[15],-0.341
same,glycan array binding signal (z-score),[16],-0.322
same,glycan array binding signal (z-score),[17],-0.227
same,glycan array binding signal (z-score),[18],-0.334
same,glycan array binding signal (z-score),[19],-0.338
same,glycan array binding signal (z-score),[20],-0.338
same,glycan array binding signal (z-score),[21],-0.333
same,glycan array binding signal (z-score),[22],0.223
same,glycan array binding signal (z-score),[23],-0.338
same,glycan array binding signal (z-score),[24],-0.328
same,glycan array binding signal (z-score),[25],-0.33
same,glycan array binding signal (z-score),[26],-0.312
same,glycan array binding signal (z-score),[27],-0.324
same,glycan array binding signal (z-score),[28],-0.329
same,glycan array binding signal (z-score),[29],-0.335
same,glycan array binding signal (z-score),[30],-0.314
